Lines with a small IC50 respond at low doses; a fit beyond the top or the lowest dose is shown as a bound at that dose. For AUC the same curve is integrated over the 256-fold range of doses and scaled to a fraction; it is 1 without any effect and falls as sensitivity rises. A top dose marked as inferred is not printed in the source and was worked back from the curve model.
What was measured:
Assay in all cases: Viability of human cancer cell lines after 72 h of drug (GDSC screen)
[1] = compound: O=C(NC(COc1ccc2[nH]c(=O)[nH]c2c1)c1ccccc1)c1cccn(Cc2ccc(F)c(F)c2)c1=O [KIN001-244]; conditions: top dose 20 µM; top dose inferred
Method: (§1)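 Human cancer cell lines in 384-well plates, medium with 10% serum, drug for 72 h over a 256-fold dose range (nine 2-fold or five 4-fold steps up to the top dose). Adherent lines were fixed and stained with the nucleic acid dye Syto60, suspension lines read with resazurin; signal relative to control wells, capped at 0 and 100%. One two-parameter sigmoid per drug and line, fitted in a mixed model over all curves with the slope shared within a line.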

[2] = compound: CCc1cncnc1N1CCN(Cc2nc3ccc(C(F)(F)F)cc3[nH]2)CC1 [PF-4708671]; conditions: top dose 10 µM; top dose inferred
Method: as §1

[3] = compound: CCNC(=O)C[C@@H]1N=C(c2ccc(Cl)cc2)c2cc(OC)ccc2-n2c(C)nnc21 [I-BET-762]; conditions: top dose 20 µM; top dose inferred
Method: as §1

[4] = compound: CCN1CCN(Cc2ccc(NC(=O)c3ccc(C)c(/C=C/c4cnc5[nH]ccc5c4OC)c3)cc2C(F)(F)F)CC1 [HG-6-64-1]; conditions: top dose 5.12 µM; top dose inferred
Method: as §1

[5] = compound: COc1cc2nccc(Oc3ccc(NC(=O)Nc4cc(C)on4)c(Cl)c3)c2cc1OC [AV-951]; conditions: top dose 0.128 µM; top dose inferred
Method: as §1

| Cell Line | AUC [1] | IC50 [1] [µM] | AUC [2] | IC50 [2] [µM] | AUC [3] | IC50 [3] [µM] | AUC [4] | IC50 [4] [µM] | AUC [5] | IC50 [5] [µM] |
| --- | --- | --- | --- | --- | --- | --- | --- | --- | --- | --- |
| C-4-I (cervix, adherent) | 0.902 | > 20 | 0.981 | > 10 | 0.975 | > 20 | 0.949 | > 5.12 | 0.986 | > 0.128 |
| CAPAN-1 (pancreas, adherent) | 0.938 | > 20 | 0.944 | > 10 | 0.918 | > 20 | 0.804 | 2.9 | 0.98 | > 0.128 |
| DAN-G (pancreas, adherent) | 0.949 | > 20 | 0.973 | > 10 | 0.988 | > 20 | 0.992 | > 5.12 | 0.991 | > 0.128 |
| DMS-273 (small cell lung carcinoma, adherent) | 0.672 | 3.89 | 0.931 | > 10 | 0.857 | 17.7 | 0.7 | 1.21 | 0.981 | > 0.128 |
| EGI-1 (biliary tract, adherent) | 0.935 | > 20 | 0.971 | > 10 | 0.982 | > 20 | 0.924 | > 5.12 | 0.982 | > 0.128 |
| FADU (head and neck, adherent) | 0.927 | > 20 | 0.879 | 9.58 | 0.98 | > 20 | 0.861 | 4.07 | 0.988 | > 0.128 |
| FU-OV-1 (ovary, adherent) | 0.895 | > 20 | 0.934 | > 10 | 0.804 | 13.9 | 0.626 | 0.794 | 0.974 | > 0.128 |
| GMS-10 (glioma, adherent) | 0.987 | > 20 | 0.964 | > 10 | 0.974 | > 20 | 0.841 | 3.5 | 0.987 | > 0.128 |
| HCE-4 (oesophagus, adherent) | 0.992 | > 20 | 0.986 | > 10 | 0.989 | > 20 | 0.804 | 2.14 | 0.992 | > 0.128 |
| HCT-116 (large intestine, adherent) | 0.88 | 19 | 0.94 | > 10 | 0.897 | > 20 | 0.63 | 0.716 | 0.979 | > 0.128 |
| HEL (acute myeloid leukaemia, semi-adherent) | 0.898 | 17.5 | 0.992 | > 10 | 0.559 | 1.76 | 0.786 | 1.82 | 0.992 | > 0.128 |
| HPAC (pancreas, adherent) | 0.912 | > 20 | 0.906 | > 10 | 0.9 | > 20 | 0.819 | 4.61 | 0.979 | > 0.128 |
| HT55 (large intestine, adherent) | 0.967 | > 20 | 0.99 | > 10 | 0.986 | > 20 | 0.986 | > 5.12 | 0.99 | > 0.128 |
| HT-29 (large intestine, adherent) | 0.842 | 14.1 | 0.985 | > 10 | 0.891 | > 20 | 0.786 | 2.21 | 0.986 | > 0.128 |
| Hs939-T (melanoma, adherent) | 0.893 | > 20 | 0.986 | > 10 | 0.983 | > 20 | 0.801 | 2.77 | 0.986 | > 0.128 |
| HuCCT1 (biliary tract, adherent) | 0.835 | 15.3 | 0.761 | 3.93 | 0.982 | > 20 | 0.686 | 1.13 | 0.966 | > 0.128 |
| HuP-T4 (pancreas, adherent) | 0.917 | > 20 | 0.984 | > 10 | 0.826 | 13.1 | 0.885 | > 5.12 | 0.982 | > 0.128 |
| IGR-1 (melanoma, adherent) | 0.842 | 11.6 | 0.968 | > 10 | 0.925 | > 20 | 0.652 | 0.797 | 0.985 | > 0.128 |
| IM-95 (stomach, adherent) | 0.783 | 9.01 | 0.943 | > 10 | 0.858 | 18.2 | 0.644 | 0.822 | 0.98 | > 0.128 |
| JHU-011 (head and neck, adherent) | 0.892 | > 20 | 0.969 | > 10 | 0.896 | > 20 | 0.665 | 0.913 | 0.985 | > 0.128 |
| KMRC-1 (kidney, adherent) | 0.902 | > 20 | 0.952 | > 10 | 0.931 | > 20 | 0.851 | 4.29 | 0.987 | > 0.128 |
| KMS-12-BM (myeloma, suspension) | 0.863 | 12.6 | 0.94 | > 10 | 0.363 | 0.562 | 0.794 | 1.91 | 0.988 | > 0.128 |
| KYSE-140 (oesophagus, adherent) | 0.818 | 13.3 | 0.929 | > 10 | 0.983 | > 20 | 0.606 | 0.65 | 0.977 | > 0.128 |

From the supplement of paper PMC4967469
